± gives the standard deviation. Only a part is listed here, and it is no random draw.

The subject of the assay is MIWI (PIWIL1) piRISC loaded with L1MC piRNA (30 nt). The assay is described as follows: pre-steady-state target cleavage rate (min^-1); MIWI and MILI are mouse PIWI proteins and EfPiwi is from a freshwater sponge; tags in brackets are library labels; higher = faster piRNA-guided slicing of the target. The note with it: guide: L1MC piRNA 5'p-UAACUAAAUACUAUGCAAGCUGUAGGUCCU; auxiliary factor: 500 nM mouse GTSF1. Summed up:
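A transcribed, DNA-blocked target RNA library (0.1 nM) and 1 nM active affinity-purified piRISC bearing one synthetic guide were incubated in HEPES–potassium acetate buffer at 33 °C for 0–8 or 0–960 min, either with or without 500 nM GTSF1 partner protein. Uncleaved targets were sequenced, normalised to depth and to weakly complementary targets, and pooled over three trials, with k3 capped at 0.0001 min^-1. The pre-steady-state cleavage rate was derived with a burst-and-steady-state fit.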
On to UCCUGGAUGAGCUUCCUUAGUAUUUAGUUA, for which the “pre-steady-state target cleavage rate” value worked out at 0.0165 ± 0.0046.

On to UCCACCUACAGCUUGGUAAGUAUUUAGUUA, for which the “pre-steady-state target cleavage rate” value amounted to 0.0619 ± 0.011.

Take AGGACCUACAGCUACCAUAGUAUUUACAAA: the “pre-steady-state target cleavage rate” value was determined as 0.0118 ± 0.0057.

For UCCUGGAUGUCGAACCUUACUAUUUAGUUA, the “pre-steady-state target cleavage rate” value is less than 0.0001.

As for AGCACCUACAGCUUGCAUAGUAUUAAGUUA, the “pre-steady-state target cleavage rate” value amounted to 1.22 ± 0.17.

Regarding UCCUGGAUGUCCUUGCAAAGUAUUUUGUUA, the “pre-steady-state target cleavage rate” value is 0.00918 ± 0.0043.

With UCCUGGAUGUCGUUGCCUAGUAUUUAGUUA, the “pre-steady-state target cleavage rate” value came out at 0.00376 ± 0.0027.

UCCUGGAACAGCUUCCAUAGUAUUUAGUAA: the “pre-steady-state target cleavage rate” value was found to be 0.112 ± 0.028.

Turning to UCCUGGAACAGCUUGCAUAGAAUUUUCAAA, the “pre-steady-state target cleavage rate” value is 0.0617 ± 0.021.

In the case of UGGACCUACAGCAAGCAUAGUAUUUAGAAA, the “pre-steady-state target cleavage rate” value was 0.271 ± 0.031.

On to UCGACCUACAGCUUGGUUAGUAUUUAGAAA, for which the “pre-steady-state target cleavage rate” value stood at 0.224 ± 0.04.

Regarding UCCUGGAUCAGCUUGCAUAGUAUUAACAAA, the “pre-steady-state target cleavage rate” value amounted to 0.252 ± 0.044.

UCGACCUACAGCUUGCAUAGUAUUAUCAAA: the “pre-steady-state target cleavage rate” value worked out at 0.417 ± 0.065.

Take UGGACCUACAGCUUGCAUUGUAUUUUCAAA: the “pre-steady-state target cleavage rate” value is 0.0734 ± 0.016.

UCCUGCUACAGCUUCCAUUGUAUUUAGUUA: the “pre-steady-state target cleavage rate” value is 0.202 ± 0.024.

On to UGGACCUACAGCUUGCAAAGUAUUUUCAAA, for which the “pre-steady-state target cleavage rate” value came out at 0.13 ± 0.023.

Turning to UCGACCUACAGCUUGCAUUCUAUUUUCAAA, the “pre-steady-state target cleavage rate” value turned out to be 0.0716 ± 0.024.

On to UCCUGCUACAGCUUGCAUAGUAAAUAGAAA, for which the “pre-steady-state target cleavage rate” value is 0.216 ± 0.05.

UCCUGGAUGUGCUUGCAUAGAAUUAAGUUA: the “pre-steady-state target cleavage rate” value was 0.00481 ± 0.0037.

Consider UCCUGGAACAGCUUGCAUAGAUUUUAGUAA, for which the “pre-steady-state target cleavage rate” value turned out to be 0.0419 ± 0.015.

Take UCCUGGAAGAGCUUGCAUAGUAUUUACAAA: the “pre-steady-state target cleavage rate” value is 0.0945 ± 0.02.

As to UCCACCUACAGCUUGCAUAGUAUUAUCAAA, the “pre-steady-state target cleavage rate” value turned out to be 0.273 ± 0.043.

As to UCCACCUACAGCUUGCAUAGUAUUUUCUAA, the “pre-steady-state target cleavage rate” value is 0.361 ± 0.048.

Regarding UCGACCUACAGCUACCAUAGUAUUUAGAAA, the “pre-steady-state target cleavage rate” value came to 0.11 ± 0.031.

For UCCUGGAUGAGCUUGCAUAGUUAUUAGUAA, the “pre-steady-state target cleavage rate” value is 0.00855 ± 0.005.

In the case of UCCACCUACAGCUUGCAUAGUAUAUUCAAA, the “pre-steady-state target cleavage rate” value is 0.266 ± 0.039.

UCCACCUACAGCUUGCUAAGUAUUUACAAA: the “pre-steady-state target cleavage rate” value amounted to 0.00889 ± 0.0047.

As to UCCUGGAUGUCGAACGUUGGUAUUUAGUUA, the “pre-steady-state target cleavage rate” value was less than 0.0001.

In the case of UCCUCCUACUCGUUGCAUAGUAUUUUCAAA, the “pre-steady-state target cleavage rate” value is 0.136 ± 0.02.

As to UCCUGGAACAGCAAGCAUAGUAUUUACAAA, the “pre-steady-state target cleavage rate” value was determined as 0.192 ± 0.048.

As for UCCUGGAUGUGCUAGGAUAGUAUUUAGUUA, the “pre-steady-state target cleavage rate” value turned out to be 0.011 ± 0.0038.

As to UCCUGGAUGUCGAAGCUUAGUAUUUACUUA, the “pre-steady-state target cleavage rate” value was less than 0.0001.

For UCCUGGAUGACCAUGCAUAGUAUUUAGUUA, the “pre-steady-state target cleavage rate” value turned out to be 0.00692 ± 0.0045.

As for UCCUGCUACAGCUUGCAUAGAUUUUAGAAA, the “pre-steady-state target cleavage rate” value was 0.00439 ± 0.0033.

Turning to UCCUGCUACAGCUUGCAUAGUUAUUAGUAA, the “pre-steady-state target cleavage rate” value is 0.0808 ± 0.02.

As for UCCACCUACAGCUUCCAUAGUAUUUUGUUA, the “pre-steady-state target cleavage rate” value is 0.0349 ± 0.016.

With UCCUCCUACAGCUUCGUUAGUAUUUAGAAA, the “pre-steady-state target cleavage rate” value was determined as 0.00561 ± 0.0041.

For the origin of these results see the supplement of paper PMC10338343.
